# Laboratory results as given in the supplement of paper PMC3334620.
# Whole data set: some 33,000 sequences, median “E-score (-0.5 to 0.5)” near -0.017, cut for the highest 2% near 0.3. The list shows a part of the results.
# Target: T1, Sut1 (UniProt P53032)
# T1 sequence: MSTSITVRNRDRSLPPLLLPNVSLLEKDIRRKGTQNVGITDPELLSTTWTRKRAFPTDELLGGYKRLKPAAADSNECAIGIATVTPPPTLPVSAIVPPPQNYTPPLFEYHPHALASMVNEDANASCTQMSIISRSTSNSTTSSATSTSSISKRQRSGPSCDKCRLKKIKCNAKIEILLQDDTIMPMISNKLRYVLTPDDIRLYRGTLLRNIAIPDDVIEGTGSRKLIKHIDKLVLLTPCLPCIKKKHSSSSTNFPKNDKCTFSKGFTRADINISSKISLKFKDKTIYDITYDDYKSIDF
# Assay: PBM E-score (8-mer binding enrichment) (E-score (-0.5 to 0.5)); higher = stronger / more preferred TF binding; most listed sequences are background and not binding sites
# Settings: protein concentration: 200 nM; construct: GST-full length
# Outline: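 E-scores (a modified Wilcoxon-Mann-Whitney statistic) were assigned by the Universal PBM Analysis Suite to every ungapped eight-base word pooled with its reverse complement. The input came from universal all-10-mer Agilent arrays made double-stranded by primer extension and probed with GST-tagged yeast transcription factors at about 100-200 nM. Fluorescent anti-GST detected bound protein, and masliner normalised the scans.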
row,Sequence,PBM E-score
1,AGGGGTAA,-0.227
2,AACCGGGG,-0.0138
3,AACACCGG,0.301
4,CGAGGCGC,-0.0368
5,CTCTGGGC,-0.223
6,GCCTTAAC,-0.238
7,CCTGTAGC,-0.126
8,AGAGCGTA,-0.104
9,CTTGTGCA,-0.0845
10,ACCCTACC,-0.18
11,TACGATGA,0.0667
12,CCACTGAC,-0.292
13,GATATCAC,0.0839
14,CGTTGCAC,0.0224
15,AATTCGAC,-0.119
16,ACAGTTCG,0.183
17,CGCACCGA,-0.217
18,CCGTTTCG,0.00854
19,TGGACAAA,0.0225
20,CGAAGGAC,-0.0276
21,ACAAGCTC,-0.00237
22,CACTGTCG,-0.228
23,GGCCAGCC,-0.235
24,GGACTGAC,-0.0915
25,ATCTCCAT,0.00346

row,Sequence,PBM E-score
1,AATTTGAG,0.0282
2,AATCAGAA,0.0523
3,TTTGAAAA,0.31
4,ATTTATTA,0.269
5,GACTAGTA,-0.045
6,ACCCCCCG,-0.0942
7,ACTATTTC,0.193
8,GCGGTCCC,-0.105
9,TCTCTACA,0.0562
10,ATGAAAGC,0.0767
11,AGGCACGA,-0.139
12,TTAGGGAA,0.00499
13,CAGAGAAC,-0.299
14,CCTCGATA,0.0539
15,GCTTCCTA,0.11
16,AACAAACG,0.0823
17,AGTCTGGA,-0.129
18,GACTGCCA,-0.0599
19,GCCGCCCA,-0.207
20,ACGTGCCC,-0.239
21,AATGAAGG,0.0157
22,AGTCAAAG,0.135
23,ACGCACAA,-0.118
24,CGGATTAC,0.0105
25,CACGCCTA,-0.223

row,Sequence,PBM E-score
1,CCTAGAGC,-0.164
2,CGTTGGAG,-0.201
3,GTTTCACA,0.0631
4,GGCTTTCA,0.0417
5,CAGATTTC,0.00522
6,ACAGTTTA,0.136
7,GGGGATAC,-0.178
8,GAGCACCC,-0.213
9,CAAGTCAC,-0.0175
10,CGCAACGC,-2e-05
11,GCGCACAC,-0.289
12,GTCAGGGA,-0.218
13,TACGGATA,0.178
14,AGCATAAC,0.0165
15,GCTCGGTA,0.0843
16,ATTGACTC,0.158
17,ATGTTCGA,-0.0617
18,ACGTCCTC,-0.0827
19,AGATACGC,-0.11
20,CAAAATAA,0.201
21,ATTCTACC,0.0903
22,GATGACCA,-0.0114
23,ATCTGAGA,-0.102
24,CACATATC,0.0454
25,CGACTGGC,-0.0636

row,Sequence,PBM E-score
1,ATACAAGC,-0.00335
2,CAGGGTGG,-0.271
3,CTGTTGAC,-0.168
4,ACATGTGA,0.076
5,ACTTTATA,0.242
6,CGACCTAG,-0.066
7,AATACACC,0.154
8,AGGAATGG,-0.156
9,GATCATAC,-0.0286
10,AGACTTCC,-0.233
11,CTTTGTCA,0.0177
12,ACCGCAAG,-0.0139
13,ATAACGTC,-0.0614
14,GCGCTTCC,-0.0879
15,GCTTGAAA,0.0768
16,TCGCTTCA,0.0692
17,GCCCCAAA,-0.181
18,GGCAGACA,-0.215
19,CTGAGTAC,-0.0624
20,GCTCGGCA,-0.0858
21,CGTCTAAA,-0.0444
22,CCGGCATA,0.027
23,CAATCTAC,-0.0848
24,GGTGCGAC,-0.193
25,CCAGATAC,0.0631

row,Sequence,PBM E-score
1,GCTCAATA,-0.00174
2,AGTTCAAA,0.233
3,AACCCTAT,-0.0821
4,AGGCCTAG,-0.193
5,CAGAATAA,0.0737
6,CTGCAGAC,-0.0823
7,ATAAATAG,0.295
8,GCATTATA,0.118
9,AAGTTCGC,-0.0687
10,ACTGCCCC,-0.282
11,GGAATGAA,0.166
12,AAGTACAT,0.142
13,TCAGTAGA,-0.0236
14,TCCTGTCA,-0.00798
15,CTAGGAAG,-0.0495
16,CACCCGTG,-0.228
17,CGTGGTTC,-0.00828
18,AATTCCCC,0.022
19,CTTTAGAC,0.00347
20,GTCTATTA,-0.0459
21,ACTCGCAG,-0.117
22,TTATAAAA,0.314
23,GAACTGTC,0.00324
24,CGAACTCG,-0.0661
25,AGGCGATG,-0.165

row,Sequence,PBM E-score
1,GAGAGGAC,-0.105
2,CCTCAGCA,-0.395
3,CCGTCGTA,-0.104
4,CCTTAGAG,-0.27
5,TCTACTCA,0.107
6,AACTCCCC,-0.0339
7,CCTATTCA,-0.0075
8,CACTTGGC,-0.162
9,CCGTAATC,0.0754
10,AAGACCCT,-0.219
11,AAGGACCC,-0.188
12,ACGAGATA,-0.0793
13,GAAAATCC,0.111
14,GTATGGAC,0.0997
15,GGATATCA,-0.0876
16,GCGCACGA,-0.0416
17,TCTCCACA,-0.0497
18,CACTGCGG,0.0495
19,CAGAGGCC,-0.38
20,AACAATGC,0.102
21,AGGTCCGG,0.461
22,ACAGAACG,-0.0202
23,CTCCGCTA,0.301
24,AAGTCCGC,0.486
25,CGCCTGCC,-0.252

row,Sequence,PBM E-score
1,GCTACCGA,0.0694
2,GCTCTCAC,-0.181
3,CCTCACCC,0.0784
4,AAGCTCAT,-0.249
5,AGGATCCA,-0.00501
6,AACGCTAC,-0.026
7,AACCTCTT,0.18
8,ATATCGTC,-0.0971
9,GCAAATCA,0.0186
10,ACGCTGCA,-0.198
11,CCGAGAAC,0.274
12,CAACCGTA,-0.287
13,AAATAGCG,0.0887
14,GGATCGAA,-0.0726
15,CGCTATCA,-0.144
16,GACGCACC,-0.235
17,CAAAACTA,0.268
18,AATCCTCA,0.00363
19,AAGCTGCC,-0.276
20,ACCTTGTA,0.00241
21,GTCGGTGA,-0.202
22,GATCCCTA,-0.0568
